# Data taken from the supplement of paper PMC3334620.
# Whole data set: some 33,000 sequences, median “E-score (-0.5 to 0.5)” near -0.035, cut for the highest 2% near 0.35. Some of the results follow.
# Molecular target: T1, Pdr3 (UniProt P33200)
# T1 sequence: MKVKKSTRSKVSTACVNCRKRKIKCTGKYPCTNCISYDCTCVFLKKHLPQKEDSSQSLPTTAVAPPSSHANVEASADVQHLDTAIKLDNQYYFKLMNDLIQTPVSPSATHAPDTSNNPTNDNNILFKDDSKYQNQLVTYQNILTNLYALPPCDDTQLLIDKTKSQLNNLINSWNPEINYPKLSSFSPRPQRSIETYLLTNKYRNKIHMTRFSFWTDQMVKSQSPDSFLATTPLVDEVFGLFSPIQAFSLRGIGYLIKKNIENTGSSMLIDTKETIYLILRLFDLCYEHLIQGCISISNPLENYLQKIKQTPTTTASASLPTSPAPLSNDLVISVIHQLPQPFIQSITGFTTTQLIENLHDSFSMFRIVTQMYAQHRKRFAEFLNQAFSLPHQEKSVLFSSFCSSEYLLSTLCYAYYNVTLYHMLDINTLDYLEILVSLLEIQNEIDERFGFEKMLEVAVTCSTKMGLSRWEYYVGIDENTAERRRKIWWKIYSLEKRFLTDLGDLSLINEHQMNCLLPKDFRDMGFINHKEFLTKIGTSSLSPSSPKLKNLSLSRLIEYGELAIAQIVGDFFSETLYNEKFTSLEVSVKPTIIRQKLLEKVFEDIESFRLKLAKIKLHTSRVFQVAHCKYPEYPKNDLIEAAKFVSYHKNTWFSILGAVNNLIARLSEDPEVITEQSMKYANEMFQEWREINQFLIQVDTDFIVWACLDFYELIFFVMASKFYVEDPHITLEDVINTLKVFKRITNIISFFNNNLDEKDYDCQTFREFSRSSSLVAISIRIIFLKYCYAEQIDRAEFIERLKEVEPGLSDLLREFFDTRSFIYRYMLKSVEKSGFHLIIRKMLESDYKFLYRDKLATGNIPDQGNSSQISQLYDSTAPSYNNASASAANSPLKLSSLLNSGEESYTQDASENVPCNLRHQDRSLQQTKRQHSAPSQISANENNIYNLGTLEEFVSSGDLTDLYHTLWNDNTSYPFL
# Experiment: PBM E-score (8-mer binding enrichment) (E-score (-0.5 to 0.5)); higher = stronger / more preferred TF binding; most listed sequences are background and not binding sites
# Conditions: protein concentration: 200 nM; construct: GST-full length
# In short: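 Detection of bound protein used fluorescent anti-GST, with scans normalised by masliner. The proteins were GST-tagged yeast transcription factors applied at about 100-200 nM to universal all-10-mer Agilent arrays made double-stranded by primer extension. Each ungapped eight-base word, pooled with its reverse complement, was scored with an E-score from the Universal PBM Analysis Suite.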
row,Sequence,PBM E-score
1,CGCTCCCC,-0.155
2,CAGCTTGA,-0.0629
3,AGTCTAAG,0.0279
4,GCAGTTCC,0.265
5,AGTACATA,-0.0137
6,ATTCTCAA,-0.161
7,AGGTTAAA,-0.0444
8,CGAGGGCG,0.00307
9,ACACAGAC,-0.121
10,ATATATGG,0.0752
11,ACCATATC,0.125
12,AAAAAGCT,-0.119
13,CTCACTAC,-0.0293
14,AATTAGAG,-0.0202
15,CCTCGTCA,-0.0433
16,ACTCAGTG,-0.212
17,CTAGTTGA,-0.0407
18,CCCTGTAA,-0.139
19,CTCAACTA,-0.0622
20,AGGGTCAG,-0.345
21,AGACAGAC,0.138
22,GTAGACTA,-0.303
23,ATATAGAA,-0.00385
24,GAACGAAC,-0.0191
25,AAAGTCCA,-0.0765

row,Sequence,PBM E-score
1,AGCCTGGA,-0.118
2,AATCCCTA,-0.148
3,AGGGCTAG,-0.274
4,ACTATCCT,-0.0465
5,ACCCCGAC,0.178
6,CGGGCTAA,0.179
7,TAATAGAA,-0.0443
8,AGTCGAGG,-0.0618
9,ACTTACCA,-0.0984
10,CCTTGGGA,-0.0582
11,ATGACTGG,-0.165
12,CCGTCCCG,0.371
13,GAGCTATC,-0.129
14,CCTTATGC,-0.136
15,GCGGCGGA,0.404
16,TGCATTAA,-0.0594
17,TCTTACCA,-0.145
18,AGGGACGA,0.107
19,CAAGTAGA,-0.0308
20,CCGGCAAC,0.303
21,CTAGGAAA,-0.168
22,CGTCACCC,0.0801
23,CATAGCGA,-0.134
24,GTCCCTGA,-0.23
25,AGGTGGGG,-0.0698

row,Sequence,PBM E-score
1,CACAGTTC,0.185
2,CACTTTCG,0.0283
3,AAAATGGC,0.0732
4,GAGATGGC,0.157
5,GTCCAGAA,-0.00311
6,ATGTCGCA,0.0362
7,CAGAGGGA,-0.142
8,CGGAACAC,0.483
9,AGTCGTTG,-0.279
10,ATACGCGC,0.0551
11,AAGAAGAA,0.103
12,GCGATATA,0.0343
13,CAGGGGGG,-0.335
14,AGCTATTG,-0.0946
15,CCTACCGC,-0.0338
16,AGGTGTTC,-0.213
17,ACTTATCA,0.00828
18,ATAAGGGG,-0.014
19,TAGACACA,-0.238
20,AGTTGTCA,0.064
21,TCTATCCA,-0.103
22,ACTTCCTG,-0.121
23,GAATCAAA,0.0557
24,ATACTTAC,-0.00577
25,CGATGCAG,0.0208

row,Sequence,PBM E-score
1,TAATGCCA,0.0964
2,GCCTCAAC,-0.0751
3,TGCTGTAA,-0.218
4,AACCTGAA,-0.247
5,CATGGCAA,-0.0906
6,GCCGAACA,0.159
7,TTCAACAA,0.0248
8,CCAACTAG,-0.163
9,ACACAGGG,0.0204
10,GGGCTTGA,-0.211
11,CCAATTGC,-0.0711
12,CCCGAATA,0.14
13,AAGTAGAC,-0.201
14,AAATTATT,0.155
15,AAAGTTCA,0.0299
16,ACTTTACG,-0.0232
17,TGCCAAAA,-0.032
18,CGTGGGAA,-0.115
19,GTATTAAC,0.0325
20,GATAGAGC,-0.0951
21,GGGGATCA,-0.147
22,CAAAGCAC,-0.124
23,CTGTCTTC,0.00869
24,ACTTCGGG,0.146
25,AAAGTCCC,0.0137

row,Sequence,PBM E-score
1,ACCTTGCT,-0.116
2,ATATGGAT,0.0193
3,TAGCGGAA,0.357
4,ATCCACTG,-0.0362
5,ACAGCTAG,-0.113
6,CGGCACGC,0.12
7,AAAGAGGT,-0.11
8,ACCACTAT,-0.16
9,AAGGGATT,-0.172
10,ACTGAGGA,-0.0499
11,ACCCAGCG,-0.0803
12,ATTTAGCC,0.0178
13,CCATTTAC,0.0475
14,TGCATGAA,0.132
15,CCACTAAC,-0.287
16,CACCGTCG,0.0908
17,AGCAGATA,-0.0298
18,CTTGCATA,-0.164
19,ATTTTGAA,0.0256
20,GACTCAAC,-0.136
21,ATTTACGG,0.249
22,GATACAAC,0.0754
23,CTCTGGTA,-0.214
24,AGCCGTGG,0.124
25,ACAAGGTG,-0.125

row,Sequence,PBM E-score
1,GACGAGGA,-0.173
2,TATCGCGA,0.258
3,ACCAACTG,-0.0243
4,AGATCGTC,-0.165
5,CATAGTGG,-0.0584
6,AGAAGCAG,-0.174
7,GGCGATAA,0.109
8,CACATCCC,0.097
9,ATGATGAA,0.146
10,AGGCCGAA,0.034
11,GACATTAC,-0.00492
12,GCCGTAGC,0.0133
13,CGTCAGAG,-0.133
14,GTGTTACA,-0.197
15,GACGACAA,0.145
16,AAACGCTA,-0.252
17,AGGCGATA,-0.0322
18,ACTGTGCT,-0.0381
19,ACCCGAGA,0.258
20,AGACCCGG,0.285
21,CGGTGAGA,0.109
22,CAATACAC,-0.192
23,GGGCCTAC,-0.199
24,CACTGGCG,-0.0992
25,ATGTCCCG,0.351

row,Sequence,PBM E-score
1,GCACCACC,0.0118
2,CCTACAAA,-0.106
3,CGGAGACC,0.332
4,CTGACAGA,-0.102
5,TATCAATA,-0.104
6,AACCACAC,0.0755
7,ATTGGAAA,-0.161
8,AGTAAAAT,-0.11
9,GCCTAACA,-0.0997
10,GTACCTTA,-0.00786
11,CAATGCAA,-0.135
12,AGCCGCCA,0.00307
13,TCACGGAA,0.464
14,AAGCATCC,0.156
15,CGGGCTCA,-0.0278
16,CTATTAAG,-0.308
17,GCACACAA,-0.0438
18,AAGTGTCA,-0.259
19,GCTCGTAA,-0.045
20,GCCACTAA,-0.167
21,ACTCGGCA,0.263
22,ATGATACC,0.108
